# Out of some 310,000 compounds screened, about 14,000 (4.5%) showed an effect of 50% or more. The effect is printed as a negative number. This is one part of the list.
# Target: human ether-à-go-go-related gene (hERG) potassium channel (human, UniProt Q12809)
# Test: primary screen, population patch clamp on CHO cells stably expressing hERG
# 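Also: peak tail current of the secondary pulse compared with the same well before compound.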
# Chain of human ether-à-go-go-related gene (hERG) potassium channel (Q12809 whole entry, looked up): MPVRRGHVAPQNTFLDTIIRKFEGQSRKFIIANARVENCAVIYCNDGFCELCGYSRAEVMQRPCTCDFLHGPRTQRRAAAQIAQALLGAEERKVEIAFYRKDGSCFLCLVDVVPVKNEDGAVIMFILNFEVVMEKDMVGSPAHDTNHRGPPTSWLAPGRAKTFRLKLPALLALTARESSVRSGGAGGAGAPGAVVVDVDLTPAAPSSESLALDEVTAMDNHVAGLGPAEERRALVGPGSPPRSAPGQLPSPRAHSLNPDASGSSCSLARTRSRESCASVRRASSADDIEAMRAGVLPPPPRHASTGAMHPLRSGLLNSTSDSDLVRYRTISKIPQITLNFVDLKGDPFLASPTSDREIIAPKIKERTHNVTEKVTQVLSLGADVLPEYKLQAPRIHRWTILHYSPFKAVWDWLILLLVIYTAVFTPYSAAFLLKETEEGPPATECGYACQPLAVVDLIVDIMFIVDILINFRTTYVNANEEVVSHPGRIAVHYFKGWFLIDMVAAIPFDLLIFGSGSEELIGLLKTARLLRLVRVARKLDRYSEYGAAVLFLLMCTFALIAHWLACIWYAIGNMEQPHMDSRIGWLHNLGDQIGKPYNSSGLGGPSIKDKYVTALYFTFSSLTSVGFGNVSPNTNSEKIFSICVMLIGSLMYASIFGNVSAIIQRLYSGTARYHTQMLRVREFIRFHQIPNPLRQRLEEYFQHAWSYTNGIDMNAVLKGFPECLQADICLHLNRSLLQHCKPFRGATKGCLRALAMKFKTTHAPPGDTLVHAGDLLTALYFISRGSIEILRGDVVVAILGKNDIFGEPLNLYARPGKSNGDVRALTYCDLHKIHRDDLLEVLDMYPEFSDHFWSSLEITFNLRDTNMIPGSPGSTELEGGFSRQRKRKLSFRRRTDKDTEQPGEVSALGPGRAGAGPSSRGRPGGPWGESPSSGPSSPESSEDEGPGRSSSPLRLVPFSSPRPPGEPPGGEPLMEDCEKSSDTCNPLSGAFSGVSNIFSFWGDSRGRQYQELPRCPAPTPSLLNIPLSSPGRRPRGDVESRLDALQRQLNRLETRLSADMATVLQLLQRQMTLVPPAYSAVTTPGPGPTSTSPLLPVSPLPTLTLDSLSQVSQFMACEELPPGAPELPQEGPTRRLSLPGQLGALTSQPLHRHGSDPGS
row,Compound,"hERG current change (%, negative = inhibition) at 10uM"
1,O=S(=O)(NCC1CC1)c1cccc(S(=O)(=O)N2CCCC2)c1,1.43%
2,COc1ccc(CCNS(=O)(=O)CCNC(=O)c2ccc3c(c2)OCO3)cc1,-9.33%
3,Cc1cc(C(=O)Nc2cccc(C)c2C)n(-c2ccccc2)n1,-11.7%
4,COc1ccc(C(CNC(=O)c2oc3cc(C)c(C)cc3c2C)N2CCCCC2)cc1 (stereo not shown),19.1%
5,CCC(=O)N1c2ccc(S(=O)(=O)NCc3ccco3)cc2CC1C (stereo not shown),-14.1%
6,Cc1c(N)c(C(C)(C)C)cc(C(C)(C)C)c1[N+](=O)[O-],0.751%
7,O=C(O)Cc1ccc(NC(=O)c2ccc(NC(=O)C3CC3)cc2)cc1,-5.76%
8,Cc1cc(C)c(C(N)=O)c(SCC(=O)c2cc(C)c(C)cc2C)n1,5.67%
9,CC1Oc2ccccc2C=C1C1/C(=C(/O)c2ccccc2)C(=O)C(=O)N1CCCN(C)C (stereo not shown),11.9%
10,O=C(COc1ccc(Cl)cc1)NCCSCc1ccccc1Cl,-4.8%
11,C=CCSc1nc2sc3c(c2c(=O)n1-c1ccccc1)CCN(C)C3,-7.23%
12,Cc1ccc(-c2cc(C(=O)OCC(=O)N(C)C3CCS(=O)(=O)C3)c3ccccc3n2)c(C)c1 (stereo not shown),-48.3%
13,O=C(CCn1ccnc1)Nc1nc2ccccc2[nH]1,8.29%
14,O=C(O)CCCCCN1C(=O)/C(=C/c2ccncc2)SC1=S,16%
15,COC(=O)C(NC(=O)c1ccc(OC)cc1)(Nc1ncc(S(=O)(=O)c2ccc([N+](=O)[O-])cc2)s1)C(F)(F)F (stereo not shown),-5.41%
16,O=C1CCC([N+](=O)[O-])C(c2cc3c(cc2Br)OCO3)N1 (stereo not shown),-0.348%
17,Cc1cccc(-n2c(=O)c(C#N)cc3c(=O)n4ccccc4nc32)c1,-8.28%
18,Cc1cc(C)c(C(=O)CC2(O)C(=O)Nc3ccccc32)cc1C (stereo not shown),9.1%
19,Cc1ccnc(NC(=O)c2ccc(S(=O)(=O)N3CCCCC3)cc2)c1,-17.9%
20,O=C(CN1CCN(Cc2ccc(Cl)cc2)CC1)N1CCc2ccccc21,-67.5%
21,O=C(NCC(=O)N1CC=C(c2ccccc2)CC1)c1ccco1,-78.4%
22,CC(CNC(=O)C(=O)NC(C)CCc1ccccc1)Cc1ccccc1 (stereo not shown),16.8%

row,Compound,"hERG current change (%, negative = inhibition) at 10uM"
1,CN(C)CCCN(C(=O)c1ccc(Br)s1)c1nc2cc3c(cc2s1)OCO3.Cl,-52%
2,S=C(Nc1ccc(Cl)cc1)Nc1ccc2cn[nH]c2c1,14.4%
3,COCCSc1nnc(NC(=O)Cc2ccc(OC)c(OC)c2)s1,-7.09%
4,COc1cc(OC)c(OC)cc1C#N,-1.07%
5,Cc1cccc(OC(=O)c2cccnc2)c1C,-2.35%
6,CC(C)c1ccc(C(=O)Nc2ccc(N3CCOCC3)cc2)cc1,-11.5%
7,CCCC(=O)Nc1ccc(C(=O)Nc2ccc([N+](=O)[O-])cc2OC)cc1,13.4%
8,Cc1[nH]c2ccccc2c1C(=O)CN1CCCCC1C (stereo not shown),-10%
9,Cc1ccc(OC(C)C(=O)N(Cc2cccs2)C2CCS(=O)(=O)C2)cc1C (stereo not shown),0.377%
10,CC(C)CNC(=O)c1ccc(COc2ccc(Cl)cc2Cl)o1,-18.5%
11,C[C@H]1C=C(C(=O)O)O[C@@H](OCc2ccc(CO)cc2)C1,12.8%
12,CC1(c2ccc(OC(F)F)cc2)NC(=O)N(CC(=O)Nc2ccc(N3CCCCC3)cc2)C1=O (stereo not shown),17.3%
13,Cc1ccsc1C(=O)NNC(=O)c1csc(N2CCOCC2)n1,12.7%
14,CC(C)CN(C(=O)c1ccc(C(F)(F)F)cc1)c1c(N)n(CC(C)C)c(=O)[nH]c1=O,24.5%
15,N=c1nc(SCCC(=O)O)ss1,3.64%
16,Cc1cc(-c2csc(Nc3ccccn3)n2)ccc1F,11.7%
17,O=[N+]([O-])c1cccc2c(S(=O)(=O)N3CCOCC3)cccc12,-27.7%
18,Cc1cccc(NC(=O)N2CCc3ccccc3C2)c1C,4.41%
19,Cc1ccc2nc(C(F)C(F)(F)F)[nH]c2c1 (stereo not shown),40.3%
20,COc1ccc(N(CC(=O)NCCSCc2ccc(C)cc2)S(=O)(=O)c2ccccc2)cc1,3.04%
21,CCCCOc1cccc(OCCCC)c1C(=O)Nc1cc(C)on1,-1.49%
22,COc1ccccc1C(=O)C1CCCN(C(=O)C2=CC(=O)CC(C)(C)O2)C1 (stereo not shown),12.5%

row,Compound,"hERG current change (%, negative = inhibition) at 10uM"
1,O=C(/C=C/c1cccc([N+](=O)[O-])c1)N1CCN(Cc2ccc3c(c2)OCO3)CC1,-41%
2,CCCOc1ccc(/C=N/NC(=O)CN2CCCCC2)cc1OCC,-51.4%
3,CN(c1ccccc1)S(=O)(=O)c1ccc(NC(=O)c2ccccc2C(=O)O)cc1,21.7%
4,COc1ccc(S(=O)(=O)NCCc2c[nH]c3ccc(C)cc23)cc1,14.2%
5,CCOC(=O)N1CCC(NC(=O)Cn2cccc2C(=O)c2ccccc2)CC1,3.19%
6,COCCn1c(N)c(N(Cc2ccccc2)C(=O)CSCC(=O)Nc2ccc(OC)cc2)c(=O)[nH]c1=O,3.66%
7,O=C(NCCCN1CCOCC1)c1sc2cc([N+](=O)[O-])ccc2c1Cl,-54%
8,OCC1(CCc2ccccc2)CCN(Cc2cnc(N3CCCC3)s2)CC1,-70.3%
9,CCOc1cc(/C=C2\C(=O)N(c3cccc(C(=O)O)c3)N=C2C(F)(F)F)ccc1OCC(=O)Nc1ccccc1OC,1.54%
10,CCOC(=O)N1CCC(N(CCOC)C(=O)Nc2ccc(C)c(C)c2)CC1,-23.6%
11,CCOC(=O)c1c(NC(=O)CN2CCN(C(=O)C3CCCO3)CC2)sc(C)c1C (stereo not shown),-20.8%
12,CCn1c(CNC(=O)c2ccc3c(c2)OCO3)nnc1SCC(=O)Nc1ccccc1F,-6.31%
13,Cc1csc2nc(O)c(C(=O)NCCC3=CCCCC3)c(=O)n12,-2.61%
14,Cc1ccccc1Nc1nc(N)nc(CSc2n[nH]c(N)n2)n1,14.1%
15,CN(C(=O)CCN1C(=O)/C(=C/c2ccccc2)SC1=S)C1CCS(=O)(=O)C1 (stereo not shown),-10.6%
16,O=C1C(CSCc2ccccc2)NC(=S)N1c1ccccc1 (stereo not shown),16%
17,C=CCN(C(=O)CNS(=O)(=O)c1ccccc1)C(C(=O)NCCOC)c1cccnc1 (stereo not shown),2.57%
18,O=C(Nc1ccc2c(c1)OCO2)c1ccc(Cl)c(S(=O)(=O)N2CCOCC2)c1,-33.6%
19,CCOc1ccc(C(=O)N2CCn3c2nc2ccccc23)cc1,-5.37%
20,CCOc1ccc(C(=O)NCC(=O)OCc2nnc(-c3ccccc3)o2)cc1OCC,-19.2%
21,CC(c1ccccc1)n1cc(C(=O)NCC2COc3ccccc3O2)nn1 (stereo not shown),14.3%
22,CC(=O)Nc1ccc(NC(=O)C2CCCN2C(=O)NCc2ccccc2)cc1 (stereo not shown),16.4%

row,Compound,"hERG current change (%, negative = inhibition) at 10uM"
1,CCOP(=O)(c1ccccc1)c1nc(-c2ccccc2C)oc1NCc1ccccc1 (stereo not shown),15.5%
2,CCC1CCCCN1CCCNC(=O)c1c(O)nc2cc(C)ccn2c1=O (stereo not shown),-0.206%
3,COc1ccc(NC(=O)C2CC2)cc1-n1cnnn1,5.86%
4,COc1ccc(-c2c(C)nn3c(N)c(C#N)cnc23)cc1OC,11.9%
5,CCCCNC(=O)NC1CCCC1,4.48%
6,COc1ccc(Nc2nc(-c3ccccc3F)nc3ccccc23)cc1OC,0.695%
7,CN(C)S(=O)(=O)c1cccc(C(=O)NC(=S)N(CCC#N)Cc2cccnc2)c1,8.09%
8,COc1cc(/C=C2/C(=O)NC(=O)N(c3ccc(C)cc3)C2=O)cc(OC)c1OC,7.15%
9,Cc1nnc2n1N=C(c1ccc(OC(F)F)cc1)C(C)S2 (stereo not shown),-32.7%
10,O=C(Oc1ccc2c(c1)C(=O)c1ccccc1CO2)c1ccccc1,2.6%
11,c1nc2ccc(Cc3ccc4nc[nH]c4c3)cc2[nH]1,6.72%
12,CCc1cc2c(=O)n(Cc3ccccc3)c(SC3CCOC3=O)nc2s1 (stereo not shown),-80.4%
13,COc1ccc(CCNC(=O)C(=O)NCC2OCCN2C(=O)c2ccc(Cl)cc2)cc1 (stereo not shown),7.49%
14,COc1cc(S(=O)(=O)N2CCN=C2c2ccccc2)ccc1Cl,16.6%
15,COC(=O)c1ccc(NC(=O)CSc2nncn2-c2cccnc2)cc1,-1.37%
16,CCC(=O)Nc1nnc(SCC(=O)Nc2ccc3c(c2)OCCO3)s1,20.8%
17,CN(NC(N)=O)c1ncc(C(F)(F)F)cc1Cl,3.8%
18,Cc1cccn2c(=O)nc(SCC(=O)N3CCN(c4ccccc4)CC3)nc12,-67.6%
19,CCC(C)n1c(=S)[nH]c2c(sc3ccc([N+](=O)[O-])cc32)c1=O (stereo not shown),9.95%
20,CCOC(=O)CC(NC(=O)c1cccc2c1C(=O)N(Cc1cccnc1)C2)c1ccc(OC(C)C)cc1 (stereo not shown),11.9%
21,COc1ccc(NC(=O)C(CCSC)NC(N)=O)cc1Cl (stereo not shown),27.6%
22,Cc1cccc(NC(=O)c2nc[nH]c2C(=O)N2CCc3ccccc3C2)c1,5.13%

# — paper PMC4336329 (PLoS ONE, 2015)
